Our source for the TetR repression strength values is a collection of fitness landscapes (doi:10.1038/s41467-024-54723-y).

The full ranking holds about 18,000 sequences; the median of “TetR repression strength (sort-seq, GFP reporter)” is about 0.23, and the highest 2% start at about 0.68. This is one part of the list.

Chain of UniProt P04483 (P04483 whole entry): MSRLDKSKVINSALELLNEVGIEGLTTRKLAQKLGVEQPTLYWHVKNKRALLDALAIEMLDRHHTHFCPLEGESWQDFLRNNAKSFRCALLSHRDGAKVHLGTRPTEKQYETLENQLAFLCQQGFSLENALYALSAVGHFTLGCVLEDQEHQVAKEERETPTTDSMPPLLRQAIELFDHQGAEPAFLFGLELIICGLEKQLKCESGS

This test has as its target TetR (class B, Tn10) (UniProt P04483). The experiment in a line: TetR repression strength (sort-seq, GFP reporter) (relative to tetO2 = 1); higher = stronger repression. Particulars: E. coli. In outline:
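Three independent transformations of E. coli SIG10-MAX were made with a low-copy plasmid library randomizing eight operator positions between a constitutive promoter and sfGFP, with constitutive TetR. Following 5 h at 37 °C in LB plus 50 µg/mL chloramphenicol, 10^6 cells went through FACS into 13 fluorescence bins, and each bin was sequenced by Illumina. Repression strength was defined as the top bin index plus one minus the read-weighted mean bin, divided by the unaltered operator's value. Averages included only members reaching ≥30 reads in all replicates with a CV ≤0.5.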
Sequence TCCCAGTAAGTAGTAGAGA registered a TetR repression strength of 0.213.

TCCCCCACAGTGGGTGAGA registered a TetR repression strength of 0.105.

For TCCCCGAGAGTTAGCGAGA, the TetR repression strength was determined as 0.172.

TCCCCGGGAGTAGAGGAGA: the TetR repression strength came to 0.192.

For the sequence TCCCCGCGAGTGCTTGAGA, the TetR repression strength was found to be 0.0403.

Take TCCCCATGAGTACAAGAGA: the TetR repression strength is 0.341.

For TCCCACCTAGTTGCTGAGA, the TetR repression strength was found to be 0.36.

As for TCCCTTTCAGTCGAGGAGA, the TetR repression strength was 0.369.

TCCCGCGAAGTGCGTGAGA showed a TetR repression strength of 0.0329.

The sequence TCCCGCTAAGTGGTGGAGA displayed a TetR repression strength of 0.192.

The sequence TCCCATTAAGTTTGCGAGA yielded a TetR repression strength of 0.273.

As for TCCCATGAAGTTTGCGAGA, the TetR repression strength was determined as 0.031.

As to TCCCCTTGAGTTGAAGAGA, the TetR repression strength was 0.256.

With TCCCTACTAGTATATGAGA, the TetR repression strength came out at 0.44.

As to TCCCCTGTAGTGGCAGAGA, the TetR repression strength amounted to 0.106.

The sequence TCCCTGGGAGTACCGGAGA displayed a TetR repression strength of 0.421.

In turn, TCCCTGATAGTTGGAGAGA showed a TetR repression strength of 0.258.

Sequence TCCCTTCAAGTTATGGAGA displayed a TetR repression strength of 0.448.

TCCCGGTGAGTTGAAGAGA came in with a TetR repression strength of 0.275.

Take TCCCAAAGAGTACAAGAGA: the TetR repression strength is 0.43.

For the sequence TCCCATTGAGTCAGAGAGA, the TetR repression strength was 0.205.

TCCCAGATAGTCGTGGAGA: the TetR repression strength stood at 0.108.

The sequence TCCCTAGTAGTAAACGAGA gave a TetR repression strength of 0.187.

Turning to TCCCTGAGAGTAGGAGAGA, the TetR repression strength was found to be 0.263.

TCCCCTAAAGTTAGAGAGA gave a TetR repression strength of 0.535.

TCCCTTATAGTGTCGGAGA yielded a TetR repression strength of 0.12.

Sequence TCCCTCTCAGTATATGAGA returned a TetR repression strength of 0.377.

On to TCCCGGGAAGTCGGCGAGA, for which the TetR repression strength worked out at 0.239.

In the case of TCCCTTCCAGTGTGGGAGA, the TetR repression strength was found to be 0.139.

TCCCAGGCAGTTTCAGAGA displayed a TetR repression strength of 0.104.

Sequence TCCCGGGGAGTAAGCGAGA came in with a TetR repression strength of 0.195.

Consider TCCCGGGGAGTCGAAGAGA, for which the TetR repression strength stood at 0.114.

On to TCCCCGCCAGTAGCTGAGA, for which the TetR repression strength amounted to 0.39.

On to TCCCTCAAAGTGGTAGAGA, for which the TetR repression strength amounted to 0.15.

Regarding TCCCTGTGAGTGGGAGAGA, the TetR repression strength was found to be 0.103.

TCCCGTCGAGTTCTCGAGA had a TetR repression strength of 0.

As to TCCCTTTTAGTGAATGAGA, the TetR repression strength is 0.889.

TCCCTTCGAGTATTGGAGA: the TetR repression strength is 0.417.

Turning to TCCCCGTGAGTTCAGGAGA, the TetR repression strength was determined as 0.268.

For the sequence TCCCGTCGAGTAAGTGAGA, the TetR repression strength turned out to be 0.219.

Take TCCCGGTAAGTTGGGGAGA: the TetR repression strength amounted to 0.323.

The sequence TCCCCACCAGTCCCCGAGA showed a TetR repression strength of 0.394.

TCCCGTCAAGTGGTTGAGA returned a TetR repression strength of 0.152.

For the sequence TCCCAGGTAGTTGCGGAGA, the TetR repression strength worked out at 0.158.

Take TCCCACGTAGTCAACGAGA: the TetR repression strength turned out to be 0.604.

In turn, TCCCGTTTAGTTAACGAGA displayed a TetR repression strength of 0.325.

Sequence TCCCTGTAAGTGGAGGAGA registered a TetR repression strength of 0.232.

TCCCTTGTAGTCTAGGAGA had a TetR repression strength of 0.222.

Sequence TCCCAGCCAGTTCGCGAGA came in with a TetR repression strength of 0.374.

As to TCCCGCACAGTTTGCGAGA, the TetR repression strength is 0.296.

For the sequence TCCCTGTCAGTACTAGAGA, the TetR repression strength amounted to 0.596.

TCCCTAGCAGTCAGAGAGA gave a TetR repression strength of 0.0683.

TCCCAGGAAGTTGGCGAGA came in with a TetR repression strength of 0.222.

Turning to TCCCATAGAGTCGGTGAGA, the TetR repression strength is 0.178.

In turn, TCCCTGTCAGTTCGCGAGA had a TetR repression strength of 0.0983.

Turning to TCCCCTCCAGTTACCGAGA, the TetR repression strength came to 0.315.

For the sequence TCCCTAGAAGTGGAGGAGA, the TetR repression strength stood at 0.498.

TCCCTTGTAGTAATAGAGA displayed a TetR repression strength of 0.0851.

Consider TCCCAAATAGTGGAAGAGA, for which the TetR repression strength was 0.214.

Regarding TCCCGGCCAGTATTGGAGA, the TetR repression strength came to 0.164.

TCCCAACTAGTTAGCGAGA yielded a TetR repression strength of 0.415.

Sequence TCCCAGAGAGTACCCGAGA displayed a TetR repression strength of 0.212.

TCCCAGATAGTCAGGGAGA returned a TetR repression strength of 0.335.

In turn, TCCCTGGGAGTGATCGAGA had a TetR repression strength of 0.154.

Sequence TCCCCAACAGTTTTAGAGA gave a TetR repression strength of 0.419.

The sequence TCCCTTCGAGTTATGGAGA had a TetR repression strength of 0.35.

Sequence TCCCAACCAGTATTCGAGA showed a TetR repression strength of 0.305.

The sequence TCCCCACGAGTCCGTGAGA came in with a TetR repression strength of 0.293.

As for TCCCGTCTAGTCGGTGAGA, the TetR repression strength was 0.215.

Sequence TCCCCACTAGTACGCGAGA returned a TetR repression strength of 0.317.

Sequence TCCCTGGCAGTTAGAGAGA had a TetR repression strength of 0.258.

TCCCTATCAGTGTTTGAGA returned a TetR repression strength of 0.767.

For the sequence TCCCCCGAAGTGATGGAGA, the TetR repression strength was determined as 0.357.

In the case of TCCCCTTTAGTTGTCGAGA, the TetR repression strength was determined as 0.162.

In turn, TCCCCACTAGTAGGGGAGA showed a TetR repression strength of 0.133.

In turn, TCCCAACGAGTAGGAGAGA yielded a TetR repression strength of 0.168.

With TCCCGAGTAGTTGGAGAGA, the TetR repression strength turned out to be 0.316.

TCCCAGTGAGTCAACGAGA gave a TetR repression strength of 0.509.

TCCCGAGCAGTGGTGGAGA displayed a TetR repression strength of 0.167.

As to TCCCACTCAGTGCATGAGA, the TetR repression strength was found to be 0.218.

TCCCTTGTAGTTGGTGAGA displayed a TetR repression strength of 0.232.

Consider TCCCGGTGAGTGAACGAGA, for which the TetR repression strength is 0.819.

In turn, TCCCGCGAAGTTTTAGAGA displayed a TetR repression strength of 0.269.

In turn, TCCCACGAAGTAGCGGAGA returned a TetR repression strength of 0.192.

The sequence TCCCGCCCAGTAGTAGAGA yielded a TetR repression strength of 0.323.

TCCCGAAGAGTGGGCGAGA gave a TetR repression strength of 0.432.

Take TCCCGGCGAGTAAGGGAGA: the TetR repression strength was determined as 0.0421.

Take TCCCCTTAAGTCTGAGAGA: the TetR repression strength is 0.263.

Turning to TCCCAGGAAGTCTGTGAGA, the TetR repression strength is 0.115.

Turning to TCCCGCATAGTGTTCGAGA, the TetR repression strength turned out to be 0.175.

Sequence TCCCGGTAAGTGTCCGAGA gave a TetR repression strength of 0.392.

For TCCCCCTAAGTGATCGAGA, the TetR repression strength came out at 0.494.

With TCCCGGGGAGTTAATGAGA, the TetR repression strength came to 0.944.

Regarding TCCCAACGAGTTTTCGAGA, the TetR repression strength is 0.244.

As to TCCCCTAAAGTGAAGGAGA, the TetR repression strength is 0.721.

TCCCATGTAGTATAGGAGA came in with a TetR repression strength of 0.117.

Regarding TCCCGCGCAGTCATTGAGA, the TetR repression strength came out at 0.207.

TCCCACGCAGTCGTTGAGA registered a TetR repression strength of 0.338.

Sequence TCCCTTTCAGTTACAGAGA had a TetR repression strength of 0.363.

Sequence TCCCTTCCAGTAATAGAGA came in with a TetR repression strength of 0.444.

In turn, TCCCGGAGAGTAGGCGAGA yielded a TetR repression strength of 0.184.

As for TCCCGAGTAGTATGTGAGA, the TetR repression strength amounted to 0.223.
